In all, about 310,000 compounds went through this assay and about 2,200 (0.71%) showed an effect of 50% or more. The effect is printed as a negative number. This is one part of the list.

This experiment deals with human ether-à-go-go-related gene (hERG) potassium channel (human, UniProt Q12809). In words: primary screen, population patch clamp on CHO cells stably expressing hERG.
Chain of human ether-à-go-go-related gene (hERG) potassium channel (Q12809 whole entry, looked up): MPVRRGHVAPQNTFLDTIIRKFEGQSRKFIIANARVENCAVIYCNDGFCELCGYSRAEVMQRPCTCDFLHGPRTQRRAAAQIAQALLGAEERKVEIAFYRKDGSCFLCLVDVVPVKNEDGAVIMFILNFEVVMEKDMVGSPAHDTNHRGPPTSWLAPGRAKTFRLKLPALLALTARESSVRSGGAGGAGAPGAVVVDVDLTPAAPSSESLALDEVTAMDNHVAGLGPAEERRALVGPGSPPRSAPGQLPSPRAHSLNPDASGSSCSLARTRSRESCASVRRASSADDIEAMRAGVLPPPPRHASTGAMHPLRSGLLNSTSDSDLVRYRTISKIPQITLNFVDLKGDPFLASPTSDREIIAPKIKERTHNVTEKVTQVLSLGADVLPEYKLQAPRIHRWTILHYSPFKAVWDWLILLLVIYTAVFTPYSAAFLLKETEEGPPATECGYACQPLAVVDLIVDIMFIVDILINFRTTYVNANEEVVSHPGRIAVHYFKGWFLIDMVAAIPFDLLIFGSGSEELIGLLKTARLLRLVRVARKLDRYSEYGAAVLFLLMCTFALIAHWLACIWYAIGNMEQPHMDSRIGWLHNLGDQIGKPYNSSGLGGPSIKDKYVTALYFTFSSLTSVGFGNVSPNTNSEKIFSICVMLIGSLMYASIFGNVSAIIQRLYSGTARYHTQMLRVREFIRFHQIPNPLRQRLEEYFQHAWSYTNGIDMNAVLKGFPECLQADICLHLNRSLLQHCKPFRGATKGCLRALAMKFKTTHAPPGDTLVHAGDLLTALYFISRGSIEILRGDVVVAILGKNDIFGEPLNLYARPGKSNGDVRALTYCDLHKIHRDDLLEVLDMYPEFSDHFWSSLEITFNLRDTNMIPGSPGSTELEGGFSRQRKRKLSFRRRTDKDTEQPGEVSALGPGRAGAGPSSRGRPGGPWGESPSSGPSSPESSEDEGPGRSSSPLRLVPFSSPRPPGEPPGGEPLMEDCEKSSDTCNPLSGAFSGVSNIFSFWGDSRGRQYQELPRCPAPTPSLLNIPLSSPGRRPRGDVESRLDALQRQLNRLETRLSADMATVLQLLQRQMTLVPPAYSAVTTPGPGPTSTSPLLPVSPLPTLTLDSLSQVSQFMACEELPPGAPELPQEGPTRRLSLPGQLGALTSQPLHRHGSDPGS
Turning to `CCCCCC[n+]1c(-c2ccccc2)csc1Nc1ccccc1.[Br-]`, the “hERG current change (%, negative = inhibition) at 1uM” value is recorded as 1.91%.

Turning to `COc1ccc(N(Cc2cc3ccc(C)cc3[nH]c2=O)C(=O)C2CCCO2)cc1` (stereo not shown), the “hERG current change (%, negative = inhibition) at 1uM” value amounted to 3.6%.

On to `CCOC(=O)CCc1c(C)n(CC)c2ncnn2c1=O`, for which the “hERG current change (%, negative = inhibition) at 1uM” value is on record as 8.01%. Turning to `COc1ccc(OC(C)C(=O)N(C)Cc2nc(-c3ccc(OC)cc3)no2)cc1` (stereo not shown), the “hERG current change (%, negative = inhibition) at 1uM” value is listed as -2.83%. `COc1cc(OC)cc(C(=O)N2CCN(C(=O)c3ccc(OC)c(OC)c3)CC2)c1`: the “hERG current change (%, negative = inhibition) at 1uM” value was -2.4%. Take `COc1ccc(NC(=O)c2cccc3ccccc23)cc1`: the “hERG current change (%, negative = inhibition) at 1uM” value came to 2%. Regarding `COc1ccc(CC(=O)Nc2ccc(S(=O)(=O)Nc3nccs3)cc2)cc1`, the “hERG current change (%, negative = inhibition) at 1uM” value is given as 2.74%. Turning to `CC1C2CC(C/C2=N/NC(=O)c2cccs2)C1(C)C` (stereo not shown), the “hERG current change (%, negative = inhibition) at 1uM” value is recorded as -2.51%. `CCOc1ccc(NC(=O)C2CCCN2S(=O)(=O)c2ccc(OCC)cc2)cc1` (stereo not shown): the “hERG current change (%, negative = inhibition) at 1uM” value came out at 27.9%. Under `CC(C)NC(=O)c1n[nH]c(=O)c2ccccc12` stands 3.37%; under `O=c1c(-c2ccnn2-c2ccccc2F)cnc2n1CCS2`, 1.93%. Under `Cc1cc(/C=C2\SC(=O)NC2=O)c(C)n1-c1ccc(N(C)C)cc1` stands 8.8%; under `COc1cc(C(=O)NCCOC(=O)c2cccc(N(C)C)c2)cc(OC)c1OC`, 1.61%; under `O=C(Nc1cc(S(=O)(=O)N2CCCCCC2)ccc1OCC(F)(F)F)c1cnccn1`, 10.8%. Turning to `O=c1cc(O)nc(-c2ccccc2)s1`, the “hERG current change (%, negative = inhibition) at 1uM” value worked out at 19.6%. In the case of `CCCC(=O)Nc1ccc(N2CCN(S(C)(=O)=O)CC2)cc1`, the “hERG current change (%, negative = inhibition) at 1uM” value stood at 14.3%. For `O=S1(=O)CCO[C@H]2Cc3ccccc3[C@H]2N1Cc1ccc(Cl)cc1` the value was 13.9%; for `O=C(CN1C(=O)NC2(CCCC2)C1=O)NCCC1=CCCCC1`, 14.9%. Take `O=S(=O)(Nc1ccc(-n2cnnn2)cc1)c1cccs1`: the “hERG current change (%, negative = inhibition) at 1uM” value was 6.9%.

On to `COc1cccc(NC(=O)CN(C)C(=O)CNC(=O)c2ccc3ccccc3c2)c1`, for which the “hERG current change (%, negative = inhibition) at 1uM” value worked out at 7.31%. `CCOC(=O)N1CCN(Cc2nc(-c3ccccc3)no2)CC1`: the “hERG current change (%, negative = inhibition) at 1uM” value came to 8.85%. Take `O=C(c1cn(Cc2ccccc2)nc1-c1ccc(Cl)cc1)N1CCN(c2ccccn2)CC1`: the “hERG current change (%, negative = inhibition) at 1uM” value is on record as -1.17%.

Take `Cc1cccc(CCN=c2c([N+](=O)[O-])nn(-c3ccccc3)n2O)c1`: the “hERG current change (%, negative = inhibition) at 1uM” value came out at 12.5%.

Take `O=C1SCCC1NC(=O)C(c1ccccc1)c1ccccc1` (stereo not shown): the “hERG current change (%, negative = inhibition) at 1uM” value came to 8.49%. Consider `Cc1ccccc1NS(=O)(=O)c1c(C(=O)N2CCCCCC2)c(C)n(C)c1C`, for which the “hERG current change (%, negative = inhibition) at 1uM” value is given as 9.07%.

The values are drawn from article PMC4336329 (PLoS ONE, 2015).
